Source: US20220267436A1 (published 2022)

Assays:
human LAG-3 [1] = molecular target: T1, human LAG-3 (human, UniProt P18627 23-525); test: flow cytometry, CHO-K1 cells expressing human LAG-3; FIG. 1
T1 chain: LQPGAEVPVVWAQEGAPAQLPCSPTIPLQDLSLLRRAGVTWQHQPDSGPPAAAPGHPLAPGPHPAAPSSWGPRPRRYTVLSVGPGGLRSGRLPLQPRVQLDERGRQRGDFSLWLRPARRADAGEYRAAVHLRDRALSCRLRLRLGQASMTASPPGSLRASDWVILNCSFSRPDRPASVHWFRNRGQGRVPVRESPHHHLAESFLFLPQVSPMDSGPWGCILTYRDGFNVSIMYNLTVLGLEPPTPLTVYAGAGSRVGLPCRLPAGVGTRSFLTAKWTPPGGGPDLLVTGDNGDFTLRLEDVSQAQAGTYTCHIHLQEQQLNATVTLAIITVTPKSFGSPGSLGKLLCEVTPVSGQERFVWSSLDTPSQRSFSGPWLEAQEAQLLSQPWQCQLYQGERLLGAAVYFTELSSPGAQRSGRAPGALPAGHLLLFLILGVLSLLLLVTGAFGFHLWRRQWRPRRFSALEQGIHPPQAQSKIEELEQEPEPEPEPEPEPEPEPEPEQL

human LAG-3 [2] = molecular target: T1, human LAG-3; test: flow cytometry, CHO-K1 cells expressing human LAG-3; FIG. 2

B1: Fc fusion protein sdAb-LAG3-IgG4PE (Fc fusion)
chain: EVQLVESGGGLVQPGGSLRLSCAASGYTVSSYCMGWFRQAPGKGREGVSAIDSDGSVSYADSVKGRFTISKDNSKNTLYLQMNSLRAEDTAVYFCAADLCWVDQDQGEYNTWGQGTLVTVSS[letters of human IgG4 Fc with changes omitted]
- EC50 (human LAG-3 [1]): 0.0403 nM
- EC50 (human LAG-3 [2]): 0.0403 nM
